The campaign covered roughly 52,000 compounds. About 4,300 (8.3%) were called active. Cut-off read from the data, not from the text of the source: active = survival mostly below about 52% (no sharp cut-off); inactive = mostly above about 56%. The list shows a part of the results.
The molecules below were run on DeltatarO mutant (assay: S. aureus survival, RN4220 and DeltatarO strains – OD600, teichoic acid synthesis inhibitors, primary screen (AID 463173)). Details: S. aureus RN4220 wild type/DeltatarO growth, OD600, 18 h, active compounds read low, screened at 18.75 µg/mL (by protocol).

SMILES	survival
N#Cc1ccccc1/C=C/C(=O)N(CCO)CC(O)c1ccccc1 (stereo not given)	inactive: 88%
COc1ccc(-c2cc(C(=O)Oc3ccc(C)c(C)c3)c3ccccc3n2)cc1	active: 40%
CC(C)(C)C(=O)CSc1nc2ccccc2[nH]1	inactive: 85%
Cc1cccn2c(=O)c3cc(C(=O)NCc4ccccc4Cl)sc3nc12	inactive: 62%
O=C(Cn1c(=O)n(Cc2ccc3c(c2)OCO3)c(=O)c2ccc(C(=O)NC3CCCCC3)cc21)Nc1ccccc1F	inactive: 76%
CCC(C)NC(=O)c1c(-c2ccccc2)c(-c2ccccc2)nn(C)c1=O (stereo not given)	inactive: 50%
Cc1ccc(C(=O)NC2(C(F)(F)F)C(=O)Nc3c2c(=O)[nH]c(=O)n3CCc2ccccc2)cc1 (stereo not given)	inactive: 74%
CCOC(=O)c1cc(-c2ccccc2)n(CCCC(=O)Nc2ccc(C)cc2C)c1C	inactive: 55%
Cc1cccc(-c2nc3nc(C)cc(N4CCN(c5ccccc5)CC4)n3n2)c1	inactive: 60%
COc1ccc(N2CCN(C(=O)CCn3cnc4onc(-c5ccc(F)cc5)c4c3=O)CC2)cc1	inactive: 118%
COc1ccc(CNCC(=O)N2CCN(C(=O)CNCc3ccc(OC)cc3)CC2)cc1	inactive: 70%
COc1ccc(NC(=O)N2CCN(c3cc(-c4noc(C)n4)ccc3C)CC2)c(OC)c1	inactive: 128%
COc1cccc(N2CCN(Cc3nnc(-c4ccc5c(c4)OCO5)o3)CC2)c1	inactive: 100%
Cc1c(C(=O)NCc2ccccc2Cl)sc2nc3n(c(=O)c12)CCC3	inactive: 105%
COc1ccc(N(CC(=O)NCc2ccc(C)cc2)S(=O)(=O)c2c(C)[nH]c(=O)[nH]c2=O)cc1	inactive: 118%
COc1ccc(Br)cc1CNC(=O)c1ccc2c(c1)nc1n2CCCCC1	inactive: 83%
Cc1cccc(CN2C(=O)c3ccccc3S(=O)(=O)c3ccc(C(=O)N4CCN(c5cc(C)ccc5C)CC4)cc32)c1	inactive: 74%
COc1cccc(C(=O)n2nc(-c3ccco3)nc2NCc2cccs2)c1	inactive: 72%
CCc1ccc(-c2cc3c(N4CCN(c5ccccc5)CC4)nccn3n2)cc1	inactive: 49%
NC(N)=N/N=C/c1ccco1	inactive: 99%
COc1ccc(-c2nc3cccc(C)n3c2NC(C)(C)C)cc1O	inactive: 109%
CCOC(=O)Cc1ccc(NC(=O)N2CC(CC)Oc3ccccc32)cc1 (stereo not given)	inactive: 58%
CCc1ccc(S(=O)(=O)c2nnn3c2nc(N2CCCC(C)C2)c2cc(Cl)ccc23)cc1 (stereo not given)	inactive: 63%

SMILES	survival
COc1ccc(OC)c(CNC(=O)C2COc3ccccc3C2)c1 (stereo not given)	inactive: 84%
Cc1ccc(-c2nc3c4ccccc4n(Cc4cccc(Cl)c4)c(=O)n3n2)cc1	inactive: 123%
O=C(Nc1cccc(S(=O)(=O)c2cccc(NC(=O)c3ccco3)c2)c1)c1ccco1	inactive: 90%
Cc1ccc(NCc2n[nH]c(=S)n2C)cc1Cl	inactive: 58%
Cc1cc(Cl)ccc1NC(=O)CN1C(=O)C(=O)c2ccccc21	inactive: 71%
O=C(O)CSc1nc2c(c(C(F)(F)F)n1)CCc1ccccc1-2	inactive: 96%
CCOc1ccc(C(=O)O)o1	inactive: 94%
Cc1nc2ccccc2n1CCc1nc2c3ccccc3nc(SCC(=O)Nc3ccc(C(C)C)cc3)n2n1	inactive: 71%
O=C(Nc1nonc1-c1ccc(Br)cc1)c1ccco1	inactive: 81%
COc1ccc(NC(=O)c2ccco2)cc1NC(=O)COc1ccc(C)cc1C	inactive: 56%
COc1cccc(Cn2cc(S(=O)(=O)c3ccc(C)cc3)c(=O)c3cc4c(cc32)OCO4)c1	inactive: 67%
Cc1ccc(NC(=O)Cc2ccc(NC(=O)N3CCCCc4ccccc43)cc2)cc1	inactive: 74%
CCCc1ccc(NC(=O)C2CCN(c3cnccn3)CC2)cc1	inactive: 62%
Clc1ccc(CSc2nc3ncccc3[nH]2)cc1	inactive: 71%
CC1CC(C(F)F)n2nc(C(=O)Nc3sc4c(c3C#N)CCC(C(C)(C)C)C4)nc2N1 (stereo not given)	inactive: 103%
COc1cc(SC#N)ccc1N=Cc1c(O)n(-c2cccc(C)c2)c(=O)[nH]c1=O	inactive: 88%
CC(C(=O)Nc1ccccc1C(F)(F)F)n1nc(-c2ccccc2)c2c(c1=O)CCCC2 (stereo not given)	active: 30%
CC(=O)c1ccc(N2CCN(C(=O)Nc3cccc(F)c3)CC2)cc1	inactive: 57%
CCN(CC)c1ccc(C(=O)NCc2ccc3c(c2)CCN3C(C)=O)cc1	inactive: 81%
Cc1cc(C)c2c(-n3cccc3)c(C(=O)NCCc3ccccc3)sc2n1	inactive: 90%
CC(C)CC(=O)Nc1c(C(=O)N2CCN(c3ccccc3F)CC2)oc2ccccc12	inactive: 73%
COC(=O)c1c(O)c[nH]c1C	inactive: 107%
CCCCC(=O)Nc1ccc(C(=O)OCc2cc(=O)n3nc(C4CC4)sc3n2)cc1	inactive: 91%

SMILES	survival
COC(=O)Cn1cnc2c1c(=O)n(C)c(=O)n2C	inactive: 117%
COC(=O)C1=C(c2ccccc2)c2ccccc2S(=O)(=O)N1CC(=O)Nc1ccccc1C(F)(F)F	inactive: 55%
COCCCNc1cc(C)nc2ccccc12	inactive: 85%
COc1ccc(S(=O)(=O)Cc2ccc(C(=O)NC3CCCCC3)o2)cc1	inactive: 124%
Cc1csc(-c2coc3cc(O)cc(C)c3c2=O)n1	inactive: 68%
Cn1c(=O)n(CCc2ccccc2)c(=O)c2c1nc1n2CCN1c1ccc(Cl)cc1	inactive: 76%
Cc1cccc(N2CCN(c3ccc(C(=O)O)cc3NC(=O)c3ccccc3F)CC2C)c1 (stereo not given)	inactive: 69%
O=C(CSc1n[nH]c(-c2ccccc2Cl)n1)N1CCN(c2ccccc2F)CC1	inactive: 119%
O=C(Cc1ccccc1)Nc1cccc(-c2nc3cccnc3s2)c1	inactive: 75%
CC1=C(C(=O)Nc2cccnc2)C(c2ccccc2)n2nc(SCc3ccccc3F)nc2N1 (stereo not given)	inactive: 98%
O=C(NC1CCCC1)c1ccc2c(c1)N(Cc1ccccc1F)C(=O)c1ccccc1S2	inactive: 81%
COc1ccc(-c2coc3c2c(C)cc2oc(=O)cc(C)c23)cc1	inactive: 82%
Cc1oc(-c2ccc(C(=O)NCc3ccccc3)cc2)nc1CS(=O)(=O)c1ccccc1	inactive: 88%
Cc1sc2c(c1C)c(=O)n(-c1cccc(C(F)(F)F)c1)c(=O)n2Cc1ccccc1C#N	inactive: 125%
Cc1ccc(OCCCCn2c(CCNC(=O)C(C)(C)C)nc3ccccc32)cc1	active: 42%
Cc1ncc(CO)c2c1Oc1nc(-c3ccccc3)nc(SCC(=O)Nc3cccc(C(F)(F)F)c3)c1C2	inactive: 105%
CCOc1ccc(N(CC)C(=O)CSc2n[nH]c(-c3ccccc3)n2)cc1	inactive: 70%
CCn1cc(C(=O)NCc2ccccc2Cl)c(=O)c2cc(S(=O)(=O)N3CCCCC3)ccc21	inactive: 89%
COCCCNC(=O)C1CCC(Cn2c(=O)c3sccc3n(Cc3ccc(F)cc3)c2=O)CC1 (stereo not given)	inactive: 99%
Cc1cc(NC(=O)Nc2csc3c2CCCC3)ccc1Br	inactive: 44%
Cc1c(NC(=O)c2ccc(N3CCC(C)CC3)c([N+](=O)[O-])c2)cccc1-c1nc2ccccc2o1	inactive: 58%
Cc1ccc(C(=O)Nc2ccc(OCc3cc(=O)n4c5c(sc4n3)CCCC5)cc2)cc1	inactive: 90%
Cc1cccc(N2CCN(C(=O)c3oc(=O)c4ccccc4c3-c3ccccc3)CC2)c1C	inactive: 69%

SMILES	survival
COc1ccc(CCN2C(=O)N(c3ccc(F)cc3)C(=O)C2CC(=O)Nc2ccc(F)c(F)c2)cc1 (stereo not given)	inactive: 61%
Nc1ccc(-c2ccc(N)cc2C(F)(F)F)c(C(F)(F)F)c1	inactive: 91%
CCOc1ccc(N(CC(=O)NCc2ccc(Cl)cc2)S(=O)(=O)c2c(C)noc2C)cc1	inactive: 90%
CCCNC(=O)CCC(=O)N1Cc2ccccc2Oc2ncccc21	inactive: 131%
CCc1ccccc1NC(=O)C1CCN(C2=NS(=O)(=O)C(c3ccc(C)c(C)c3)=C2C)CC1	inactive: 80%
c1ccc(-c2nc(N3CCCCC3)c3ccccc3n2)cc1	inactive: 96%
COc1ccc(C(=O)CN2C(=O)N(c3cc(C)ccc3C)S(=O)(=O)c3ccccc32)cc1	inactive: 83%
O=C(O)CN1C(=O)CCC1=O	inactive: 97%
Cc1cc(C)cc(NC(=O)c2sc3nc(-c4cc5ccccc5oc4=O)[nH]c(=O)c3c2C)c1	active: 43%
COC(=O)c1c(C)sc(-c2c(-c3cccc(Cl)c3)[nH]c3c2c(=O)[nH]c(=O)n3C)c1O	inactive: 113%
COc1ccc(CCNC(=O)CCc2c(C)nc3c(c(C)nn3-c3ccccc3)c2C)c(OC)c1	active: 53%
CCc1cccc(C)c1NC(=O)C(C)Sc1nc2c(c(=O)[nH]1)CCCC2 (stereo not given)	inactive: 98%
COc1ccccc1C(=O)Nc1nnc(SCc2cc(=O)n3ccc(C)cc3n2)s1	inactive: 64%
Cc1ccc(OCc2ccc(-c3nc(C#N)c(N4CCC(C)CC4)o3)o2)cc1	inactive: 58%
CC1=C(C(=O)OCc2ccc(C)cc2)C(c2ccccc2Cl)CC(=O)N1 (stereo not given)	inactive: 69%
Cc1cccc(OCC(=O)Nc2ccc3c(c2)nc(CCNC(=O)c2ccco2)n3C)c1	inactive: 115%
Cc1nc2c3ccccc3nc(NNC(=O)CCC(=O)N3CCN(c4ccccc4)CC3)n2n1	inactive: 77%
CCOC(=O)c1c(C)oc2nc(C)nc(NC(C)c3ccccc3)c12 (stereo not given)	inactive: 75%
CCOC(=O)c1cc2c(ccn2C)n1Cc1c(Cl)cccc1Cl	inactive: 87%
Cc1ccc2nc(SCC(=O)N3CCCCC3)c(C#N)cc2c1	inactive: 112%
CS(=O)(=O)N1CCc2cc(C(=O)N3CCN(c4ccc(F)cc4)CC3)ccc21	inactive: 48%
